Assay results taken from publication PMC4336329 (PLoS ONE, 2015).
The whole screen tested about 310,000 compounds, of which about 14,000 (4.5%) showed an effect of 50% or more. Effects have a minus sign here. This is one part of the list.

The compounds below were run against human ether-à-go-go-related gene (hERG) potassium channel (human, UniProt Q12809) (assay: primary screen, population patch clamp on CHO cells stably expressing hERG).
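Also: peak tail current of the secondary pulse compared with the same well before compound.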

Chain of human ether-à-go-go-related gene (hERG) potassium channel (Q12809 whole entry, looked up): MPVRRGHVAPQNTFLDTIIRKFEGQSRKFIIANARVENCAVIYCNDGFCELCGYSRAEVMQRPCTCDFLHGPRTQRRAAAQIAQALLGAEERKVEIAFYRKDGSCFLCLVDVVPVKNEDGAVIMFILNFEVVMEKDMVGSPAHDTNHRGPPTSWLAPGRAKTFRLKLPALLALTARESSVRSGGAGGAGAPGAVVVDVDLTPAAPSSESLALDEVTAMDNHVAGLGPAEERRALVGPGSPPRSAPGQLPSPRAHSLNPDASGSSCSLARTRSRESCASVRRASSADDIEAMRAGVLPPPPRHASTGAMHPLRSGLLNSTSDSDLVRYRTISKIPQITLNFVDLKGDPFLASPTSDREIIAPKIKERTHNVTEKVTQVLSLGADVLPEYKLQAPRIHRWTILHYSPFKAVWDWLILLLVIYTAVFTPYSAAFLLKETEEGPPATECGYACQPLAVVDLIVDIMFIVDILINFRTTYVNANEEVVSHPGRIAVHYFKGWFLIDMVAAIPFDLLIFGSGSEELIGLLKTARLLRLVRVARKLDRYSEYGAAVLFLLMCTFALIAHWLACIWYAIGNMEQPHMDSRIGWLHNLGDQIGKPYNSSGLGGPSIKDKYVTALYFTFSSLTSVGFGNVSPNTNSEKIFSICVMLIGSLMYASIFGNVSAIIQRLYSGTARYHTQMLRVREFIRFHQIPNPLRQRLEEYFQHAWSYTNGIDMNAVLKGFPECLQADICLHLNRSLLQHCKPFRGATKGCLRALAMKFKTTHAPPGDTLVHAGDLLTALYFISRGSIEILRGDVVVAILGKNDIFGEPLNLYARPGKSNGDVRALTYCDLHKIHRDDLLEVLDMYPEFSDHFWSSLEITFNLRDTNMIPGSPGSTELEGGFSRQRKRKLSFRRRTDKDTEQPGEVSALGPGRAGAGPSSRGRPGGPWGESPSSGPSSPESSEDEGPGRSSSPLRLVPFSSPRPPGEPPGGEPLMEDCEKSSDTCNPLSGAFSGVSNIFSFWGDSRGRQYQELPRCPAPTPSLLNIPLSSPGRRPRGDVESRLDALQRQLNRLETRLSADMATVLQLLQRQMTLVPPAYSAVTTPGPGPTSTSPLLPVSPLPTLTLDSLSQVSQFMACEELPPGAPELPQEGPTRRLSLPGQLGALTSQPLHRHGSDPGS

Structure (SMILES)	hERG current change (%, negative = inhibition) at 10uM [%]
C/C(=N\Nc1nc(C)cc(-c2ccccc2)n1)c1ccc(O)cc1	3.53
CN(C)CCNC(=O)C(=O)NCC(c1ccc2c(c1)OCO2)N1CCN(c2ccc(F)cc2)CC1 (stereo not drawn)	-7.52
O=C1CC(N(Cc2ccco2)C(=O)Nc2ccc(F)cc2)C(=O)N1c1ccc(F)cc1 (stereo not drawn)	4.84
CC(C)(C)NC(=O)CN(C(=O)C1CSC(=O)C1)c1ccc2c(c1)OCCO2 (stereo not drawn)	-0.328
Cn1c(SCC(=O)N2CCOCC2)nc2cccnc21	-2.29
COc1ccc(NC(=S)N(Cc2ccc(C)cc2)Cc2ccccn2)cc1	-50.5
Nc1c(N(CCO)C(=O)C2CCCCC2)c(=O)[nH]c(=O)n1Cc1ccccc1	-16.6
O=c1c2ccccc2cnn1-c1ccc(Cl)nn1	14.7
C=CCn1c(COc2cccc(C)c2)nnc1SC(C)C(=O)NC1CC1 (stereo not drawn)	-8.3
Cc1c(C(=O)N/N=C/c2ccc(O)cc2)sc(=S)n1C	6.05
COc1cc(CCN2C(=O)c3cccc4cccc(c34)C2=O)c(S(=O)(=O)N2CCCCCC2)cc1OC	3.78
O=C(Nc1ccc(N2CCOCC2)cc1)c1ccc2c(c1)OCO2	14.3
Cc1nn(C)c(C)c1S(=O)(=O)N1CCC(C(=O)NC2CCCCCC2)CC1	2.21
O=c1[nH]c2ccc(S(=O)(=O)N3CCN(Cc4ccccc4)CC3)cc2[nH]c1=O	-1.75
COc1cc(/C=C2\NC(=S)N(C)C2=O)ccc1OCc1ccccc1F	11
Cc1ccc(C(=O)/C=C\Nc2ccc(C)c(C)c2)cc1	-28.1
COc1ccc(Cc2nc3ccc(C(=O)N4CCCC4)cc3o2)cc1	-7.05
O=c1c2ccccc2nc(/C=C/c2c[nH]c3ccccc23)n1CCO	15.4
CCO[C@@H]1OC(C(=O)N2CCOCC2)=C[C@H](C)[C@H]1CCCO	11.8
O=C(O)c1nn(CCSc2ccccc2F)c(=O)c2ccccc12	10.1
OCCN1CCN(c2ncnc3nc[nH]c23)CC1	1.62
O=C(Nc1nc(-c2cccs2)cs1)c1cccc(S(=O)(=O)N2CCCCCC2)c1	15.1
CCN(CC)S(=O)(=O)c1cc(C(=O)Nc2ccc(Cl)cn2)ccc1C	-41.9

Structure (SMILES)	hERG current change (%, negative = inhibition) at 10uM [%]
CCOC(=O)Cn1ccc(-c2ccccc2)c(C#N)c1=O	18.9
Cn1nc([N+](=O)[O-])nc1Sc1nnc(-c2ccccc2)o1	-8.47
C=CCNC(=O)COc1ccccc1C#N	-16
CC(Sc1nc(-c2ccco2)nc2c1c(=O)n(C)c(=O)n2C)C(=O)O (stereo not drawn)	10.3
CCOc1ccccc1NC(=O)C1CC(=O)n2ncnc2N1 (stereo not drawn)	-5.11
Cc1ccccc1CN1CCC(n2nccc2NC(=O)CCOc2ccccc2)CC1	-44.9
Cn1ccnc1-c1nnn(-c2ccc(Cl)c(Cl)c2)n1	12.8
Cc1cc(O)c(/C=N/Nc2ccccc2Cl)c(=O)o1	3.13
O=C(NCCNC(=O)c1ccccc1O)c1ccccc1O	13.6
Cc1ccc(N(C)C(=O)CN(C)S(=O)(=O)c2ccc3c(c2)n(C)c(=O)c(=O)n3C)cc1	-18.5
CC(C)NC(=O)c1cccc(Br)c1	-1.93
COc1ccc(NC(C)=O)cc1NC(C)C(=O)Nc1ccccc1F (stereo not drawn)	7.35
CCC1CCc2c(sc(NC(=O)c3cnccn3)c2C(N)=O)C1 (stereo not drawn)	18.5
COc1ccc(N2CCOCC2)c(NC(=O)c2cccc3ccccc23)c1	-8.88
COc1ccc(-n2ncc3c2CC(C)(C)CC3NC(=O)c2oc(C)cc2C)cc1 (stereo not drawn)	15.2
O=C(Nc1nnc(-c2ccccc2SCc2ccccc2F)s1)Nc1ccccc1F	14.1
COc1ccccc1CNC(=O)C1CCC(CNS(=O)(=O)c2ccc(F)cc2)CC1 (stereo not drawn)	-8.17
Cc1cc(C)cc(Nc2ncc3c(n2)CCCC3=O)c1	-2.43
Cc1ccc(S(=O)(=O)N2CCN(C(=O)NCc3ccc(C(=O)O)cc3)CC2)cc1	-13
CN(Cc1ccco1)C(=O)C(Cc1ccccc1)NS(=O)(=O)c1ccc2c(c1)CCC(=O)N2 (stereo not drawn)	-37.5
CCCCOCCCN1C(C)=CC(=C2C(=O)NC(=S)NC2=O)C=C1C	-4.13
O=C(NCCOc1ccc(F)cc1)C1CCN(S(=O)(=O)c2ccccc2)CC1	-21.1
CC(C)c1ccc(-c2nc3ccccc3s2)cc1	25.5

Structure (SMILES)	hERG current change (%, negative = inhibition) at 10uM [%]
CC1(C)NC(=O)N(CC(=O)OCC(=O)Nc2cccc(F)c2)C1=O	-1.17
COC(=O)c1ccc(CSc2ncn[nH]2)o1	7.07
CC(C)Oc1ccc(CNC(=O)CCC(=O)N2CC(C)Sc3ccccc32)cc1 (stereo not drawn)	-33.5
CCOC(=O)COc1ccsc1C(=O)OC	3.59
Cc1cc(C(=O)NCc2cccs2)n(-c2ccccc2)n1	-7.89
Cc1cc(NC(=O)CCC(=O)N(Cc2ccco2)C(C(=O)NC2CCCC2)c2ccc(F)cc2)no1 (stereo not drawn)	-4.39
O=C(c1cc(-c2ccc3c(c2)OCO3)on1)N1CCCCC1	-3.9
COc1ccc(/C=C2\CCc3ccccc3C2=O)cc1CN1CCOCC1	-33.6
COc1ccc(CN(CC(=O)NCc2ccco2)C(=O)CCC(=O)Nc2nccs2)cc1	-25.3
Cn1c(=O)n(CC(=O)NCC2CCCO2)c(=O)c2c3c(sc21)COC(C)(C)C3 (stereo not drawn)	5.08
OCCC1CN(Cc2cccn2-c2cccnc2)CCN1Cc1ccc(F)cc1 (stereo not drawn)	-56.9
Cc1ccc(C(=O)NCC(=O)NCc2cc(=O)n(C)c(=O)n2C)cc1	25.6
C=CCN1CCN(C(c2ccccc2)c2nnnn2CCC(C)C)CC1.Cl (stereo not drawn)	-20.5
COc1ccc(CNC(=O)c2cc(-n3cnnc3)ccc2Cl)cc1	-18.4
Cc1ccc(N(CC(=O)N/N=C/c2ccc(OCC(N)=O)cc2)S(C)(=O)=O)cc1Cl	27.8
CCN(C(=O)CSc1nc2ccccc2c(=O)n1-c1cccc(C)c1)C1CCS(=O)(=O)C1 (stereo not drawn)	-14.9
Cc1cc(NC(=O)CSc2nnnn2-c2ccc(F)cc2)no1	10.3
Br.CCN(CC)CCN1Cc2ccccc2C1=N	-15
COc1ccc([C@H]2CC(=O)C=C(c3ccc(CO)cc3)C2)cc1	-4.98
Cc1cc(C)n(CC(=O)NC2CCCN(Cc3ccc(Cl)cc3)C2)n1 (stereo not drawn)	-9.19
COc1ccc(CN2CCNC(=O)C2CC(=O)N(C)CC2CCOCC2)c(F)c1 (stereo not drawn)	16.1
NC(=O)/C(=C/c1cccnc1)NC(=O)c1ccccc1	12.8
Cc1ccc2nc(-c3ccc(SCC(=O)Nc4nnc(C)s4)nc3)[nH]c2c1	-16

Structure (SMILES)	hERG current change (%, negative = inhibition) at 10uM [%]
CN(C)C=O.CNC(=O)CSc1nc2nc(C)cc(C)n2n1	0.176
CC1(C)c2[nH]c3ccccc3c2C[C@H]2C(=O)N(CCCCCO)CC(=O)N21	16.5
COc1cc(/C=N/n2nnnc2N)ccc1O	-14.7
COC(=O)C(C)Oc1ccc(Oc2nc(Cl)ccc2Cl)cc1 (stereo not drawn)	-0.828
O=C(CN1CCN(C(=O)c2c(F)cccc2F)CC1)Nc1ccccc1C(F)(F)F	-20.9
O=C(c1ccccc1)c1coc2c1C(=O)c1ccccc1C2=O	9.83
Cc1cc(SCc2cccc(C(F)(F)F)c2)nc(=O)[nH]1	11.3
O=C(NCCc1c[nH]c2ccccc12)c1ccc2[nH]c(=O)c(=O)[nH]c2c1	22
Cc1ccc(NC(=O)COC(=O)c2ccc(S(=O)(=O)NCc3ccco3)cc2)cc1	-4.52
CCOC(=O)C1CCN(C(=O)c2ccco2)CC1	3.87
CCOc1cccc2sc(=NC(=O)CCS(=O)(=O)c3ccc(F)cc3)n(C)c12	-29.3
COc1cc(CCCN2C(=S)NC[C@@H]2CCCCN)cc(OC)c1OC	16
O=C(Nc1ccc2c(c1)OCO2)Nc1ccccc1F	5.17
Cc1cc(NC(=O)Cc2ccsc2)ccc1Br	15
CCOC(=O)COc1cc(Br)c(/C=N/Nc2ccccc2)cc1OC	1.43
c1ccc(CCc2ccccc2-c2nc(-c3ccccn3)no2)cc1	17.1
O=C(c1ccc2c(c1)OCCCO2)c1cccs1	-2.99
COc1ccc(Br)cc1S(=O)(=O)Nc1ncccc1C	26.2
Cc1ccc(C(=O)N/C(=C\c2cn(S(=O)(=O)N(C)C)c3ccccc23)C(=O)NCCCn2ccnc2)cc1	-28.6
CCOC(=O)/C(C#N)=C/Nc1cc(F)ccc1C	20.9
N#Cc1nc(-c2ccc(OCc3ccccc3Cl)cc2)oc1NCCCn1ccnc1	-13
